# Assay results reported in PubChem BioAssay (Tox21).
# “And” between values parts separate entries of the source, which are not always exact repeats. Equal entries are not always repeated. The shares of active, inactive and inconclusive entries below differ from those in the screen. For some of these results: Potencies of inconclusive entries are doubtful fits and often do not repeat. Where a structure was tested more than once in an assay, its records may differ in their call. The source made the active and inactive calls. Unless noted, calls come from the whole dose curve; as a rule, active = well fitted curve in the direction sought with a large enough effect in the repeat runs; inconclusive = weak or mixed curves; inactive = no such curve, though single readings can be large; an effect the other way counts as inactive or inconclusive.
# Legend:
# [1] = qHTS assay to identify small molecule antagonists of the estrogen related receptor (ERR) signaling pathway from Tox21 library - cell viability counter screen (AID 1224834); note: nearly all actives have a fitted effect of over 30% in size; note: potency is the fitted concentration of half-maximal effect
# Procedure, shortened: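 Counter screen run in ERR cells (2,000 cells/well): cells pre-incubated 6 h, then treated with compounds for 17.5 h at 37 C. Fluorescence was read 30 min after CellTiter-Fluor addition.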
# [2] = qHTS assay to identify small molecule agonists of the constitutive androstane receptor (CAR) signaling pathway - cell viability counter screen (AID 1224836); note: nearly all actives have a fitted effect of over 45% in size; note: potency is the fitted concentration of half-maximal effect
# Procedure, shortened: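 Using CellTiter-Fluor, viability of HepG2 cells harbouring hCAR and CYP2B6-2.2kb was measured following 23 h incubation with a 15-concentration compound series plus PK11195 (0.75 uM final).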
# [3] = qHTS assay to identify small molecule antagonists of the constitutive androstane receptor (CAR) signaling pathway - cell viability counter screen (AID 1224837); note: potency is the fitted concentration of half-maximal effect; nearly all actives have a fitted effect of over 45% in size
# Procedure, shortened: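 CITCO at 50 nM final was added alongside compounds (15 concentrations) to double-stable hCAR/CYP2B6-2.2kb HepG2 cells. Following 23 hr at 37 C, cell viability was quantified by CellTiter-Fluor fluorescence intensity.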
# [4] = qHTS assay to identify small molecule antagonists of the estrogen related receptor signaling pathway with the pleiotropic PPARgamma coactivator (PGC) from Tox21 10K library - cell viability counter screen (AID 1224840; active = well fitted cell-killing curve with a large enough effect in the repeat runs, not every such curve was filed as active; inconclusive = weak or mixed curves, or effect the other way; inactive = no such curve, though single readings can be large or run the other way; note: nearly all actives have a fitted effect of over 40% in size; note: potency is the fitted concentration of half-maximal effect)
# Procedure, shortened: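 Readout: fluorescence intensity from CellTiter-Fluor after 30 min at 37 C/5% CO2. Preceded by 17.5 h treatment of PGC/ERR cells with DMSO-dissolved compounds, added 6 h post-seeding.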
# [5] = qHTS assay to identify small molecule agonists of the hypoxia (HIF-1) signaling pathway - cell viability counter screen (AID 1224844; calls by dose curve; note: nearly all actives have a fitted effect of over 50% in size; note: potency is the fitted concentration of half-maximal effect)
# Procedure, shortened: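 In this counter screen, HRE-bla ME-180 cell viability after 17 hrs of compound exposure at 37C was read by CellTiter-Glo luminescence, multiplexed with the beta-lactamase reporter measurement.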
# [6] = qHTS assay to identify small molecule agonists of H2AX (AID 1224845; active = well fitted activation curve with a large enough effect in the signal ratio in the repeat runs, not every such curve was filed as active; inconclusive = weak or mixed curves; the % refers to the signal ratio; note: potency is the fitted concentration of half-maximal effect); details: CHO-K1 phospho-H2AX Ser139 HTRF, 3 h; activation (H2AX phosphorylation): at 154 µM (top of the series) unless noted
# Procedure, shortened: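 Phospho-H2AX Ser139 measured by HTRF (ex 320 nm; em 665 and 620 nm) after 24 hr antibody incubation. Compounds, 15 concentrations, 0.76% DMSO, were applied to CHO-K1 cells for 3hr at 37C before lysis.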
# [7] = qHTS assay to identify small molecule agonists of H2AX - cell viability counter screen (AID 1224847; calls by dose curve; note: nearly all actives have a fitted effect of over 30% in size; note: potency is the fitted concentration of half-maximal effect)
# Procedure, shortened: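 Quantitative HTS viability measurement: CHO-K1 wild-type cells in serum (10% FBS) medium, short 3 hr drug exposure at 37C with 0.76% DMSO, CellTiter-Glo luminescent detection.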
# [8] = qHTS RealTime-Glo MT Cell Viability Assay in HepG2 cells - 24 hour (AID 1224867); note: potency is the fitted concentration of half-maximal effect; nearly all actives have a fitted effect of over 50% in size
# Procedure, shortened: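 qHTS, HepG2, 600 cells/well, RealTime-Glo (NanoLuc + prosubstrate) added with cells; 5 h preincubation; DMSO compound addition; 37 C; luminescence at 0/8/16/24/32/40 h.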
# [9] = qHTS RealTime-Glo MT Cell Viability Assay in HEK293 cells - 32 hour (AID 1224868); note: potency is the fitted concentration of half-maximal effect; nearly all actives have a fitted effect of over 50% in size
# Procedure, shortened: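 Assay medium contained NanoLuc luciferase plus cell-permeant prosubstrate, added with HEK293 cells at 600 cells/well. After 5 h at 37 C/5% CO2 compounds were added; plates stayed at 37 C for 40 h with serial luminescence reads.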
# [10] = biological target: Nuclear receptor subfamily 1 group I member 3 (Homo sapiens) (UniProt Q14994); experiment: qHTS assay to identify small molecule antagonists of the constitutive androstane receptor (CAR) signaling pathway (AID 1224838); note: nearly all actives have a fitted effect of over 40% in size; note: potency is the fitted concentration of half-maximal effect
# Chain of UniProt Q14994 (Q14994 whole entry, looked up): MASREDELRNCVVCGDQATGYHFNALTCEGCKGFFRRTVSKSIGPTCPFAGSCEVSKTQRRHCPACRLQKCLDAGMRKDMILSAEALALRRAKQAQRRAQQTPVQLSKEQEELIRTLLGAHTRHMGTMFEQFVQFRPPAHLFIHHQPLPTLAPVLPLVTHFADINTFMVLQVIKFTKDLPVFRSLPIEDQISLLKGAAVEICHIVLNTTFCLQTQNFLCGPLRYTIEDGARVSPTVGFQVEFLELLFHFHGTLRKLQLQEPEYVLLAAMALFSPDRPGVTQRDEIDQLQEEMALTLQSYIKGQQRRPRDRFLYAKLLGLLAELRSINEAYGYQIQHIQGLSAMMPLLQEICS
# Procedure, shortened: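 Inhibition of CITCO-driven (50 nM final) CYP2B6 reporter expression is measured in HepG2 cells stably carrying hCAR. Fifteen compound concentrations are applied for 24 h at 37 C, followed by luciferase luminescence.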
# [11] = biological target: Thyrotropin receptor (Homo sapiens) (UniProt P16473); experiment: qHTS assay to identify small molecule agonists of the thyroid stimulating hormone receptor (TSHR) signaling pathway (AID 1224843; calls by dose curve; note: nearly all actives have a fitted effect of over 45% in size; note: potency is the fitted concentration of half-maximal effect; for activation: % is set by controls: 0 for no effect and ±100 for the full control effect); details: TSHR-HEK293 cells, cAMP HTRF, agonist mode, 30 min
# Chain of UniProt P16473 (P16473 whole entry, looked up): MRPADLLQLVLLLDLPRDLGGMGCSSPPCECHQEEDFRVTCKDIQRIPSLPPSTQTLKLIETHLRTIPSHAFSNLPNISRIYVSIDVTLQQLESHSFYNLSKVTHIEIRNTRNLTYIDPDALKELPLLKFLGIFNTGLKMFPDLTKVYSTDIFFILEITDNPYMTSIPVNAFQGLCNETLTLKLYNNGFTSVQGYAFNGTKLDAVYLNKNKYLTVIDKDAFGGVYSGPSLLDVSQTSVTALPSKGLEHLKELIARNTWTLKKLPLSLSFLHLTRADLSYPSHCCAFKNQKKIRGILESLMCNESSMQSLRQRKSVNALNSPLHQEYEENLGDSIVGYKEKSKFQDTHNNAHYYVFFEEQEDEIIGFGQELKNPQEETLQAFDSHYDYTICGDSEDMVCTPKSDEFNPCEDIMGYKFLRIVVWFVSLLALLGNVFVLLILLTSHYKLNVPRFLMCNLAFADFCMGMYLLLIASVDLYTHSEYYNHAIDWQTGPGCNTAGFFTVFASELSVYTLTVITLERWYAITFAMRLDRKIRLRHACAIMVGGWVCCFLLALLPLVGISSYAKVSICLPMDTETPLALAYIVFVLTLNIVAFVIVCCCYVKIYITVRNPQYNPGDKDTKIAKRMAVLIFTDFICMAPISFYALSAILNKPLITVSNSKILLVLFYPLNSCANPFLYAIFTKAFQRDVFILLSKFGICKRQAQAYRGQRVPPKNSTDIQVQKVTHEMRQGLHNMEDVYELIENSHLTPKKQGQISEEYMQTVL
# Procedure, shortened: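 A cell-based cAMP HTRF format was run in TSHR-transfected HEK293 cells, 800 per well. Treatment: 30 min, room temperature. Detection: 1 h with labelled cAMP and anti-cAMP cryptate. Concentration-response over 15 points, three replicates.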
# [12] = biological target: Nuclear receptor subfamily 1 group I member 3 (Homo sapiens) (UniProt Q14994); experiment: qHTS assay to identify small molecule agonists of the constitutive androstane receptor (CAR) signaling pathway (AID 1224839); note: % is set by controls: 0 for no effect and ±100 for the full control effect; nearly all actives have a fitted effect of over 15% in size
# Procedure, shortened: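 Double-stable HepG2 cells (hCAR, CYP2B6-2.2kb) seeded 4 h before compound addition. Exposure 24 h with 0.75 uM PK11195 final. Luciferase detected by ONE-Glo.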
# [13] = qHTS assay to identify small molecule antagonists of the estrogen related receptor signaling pathway with the pleiotropic PPARgamma coactivator (PGC) from Tox21 10K library (AID 1224841; call rule not given here; note: potency is the fitted concentration of half-maximal effect; actives are mostly falling curves and most rising ones were filed inactive; nearly all actives have a fitted effect of over 50% in size)
# Procedure, shortened: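 One-Glo luminescence, measured after half an hour at room temperature, quantified reporter output of PGC/ERR cells. These had been plated at 2,000 per well, incubated 6 h, dosed with compounds in DMSO, then kept 18 h at 37 C.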
# [14] = qHTS assay to identify small molecule agonists of the hypoxia (HIF-1) signaling pathway (AID 1224846; active = well fitted activation curve with a large enough effect in the signal ratio in the repeat runs, not every such curve was filed as active; inconclusive = weak or mixed curves; the % refers to the signal ratio; note: potency is the fitted concentration of half-maximal effect); details: HRE-bla ME-180 cells, beta-lactamase ratio, 17 h; activation: at 76.8 µM (top of the series) unless noted
# Procedure, shortened: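 ME-180 HRE-bla reporter cells; compounds in DMSO, 17 h at 37C; read-out beta-lactamase via CCF4-AM FRET.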
# [15] = activation: at 92.4 µM (top of the series) unless noted
# Tags give direction and shape of the fitted curve or compound fluorescence and quenching.
smiles,measurement,setting,value
CC[C@@]1(O)C(=O)OCc2c1cc1n(c2=O)Cc2cc3c(CN(C)C)c(O)ccc3nc2-1,Potency,[1],"inconclusive: 23.7 µM [rising, partial curve]"
same,Potency,[2],"inconclusive: 18.8 µM [rising, partial curve]"
same,Potency,[3],"inconclusive: 21.1 µM [rising, partial curve]"
same,Potency,[4],"inconclusive: 23.7 µM [rising, partial curve]"
same,Potency,[5],"inconclusive: 3.79 µM [cytotoxic, partial curve, poor fit]"
same,Potency,[6],active: 1.39 µM
same,Potency,[7],inactive
same,Potency,[8],"inconclusive: 1.9 µM [falling, full curve]"
same,Potency,[9],active: 0.0674 µM
CC(NCCC(c1ccccc1)c1ccccc1)c1ccccc1 (centres undefined),Potency,[1],active: 29.8 µM
same,Potency,[2],"inconclusive: 33.5 µM [cytotoxic, single point]"
same,Potency,[3],"inconclusive: 33.5 µM [cytotoxic, single point]"
same,Potency,[10],"inconclusive: 33.5 µM [inhibitor, single point]"
same,Potency,[11]; [15],"inconclusive: 23.7 µM [activator, partial curve]"
same,Potency,[5],inactive
same,Potency,[6],"inconclusive: 61.9 µM [activator, single point]"
same,Potency,[7],"inconclusive: 24.7 µM [cytotoxic, partial curve]"
C=C(C)C(=O)OCC(O)COc1ccc(C(C)(C)c2ccc(OCC(O)COC(=O)C(=C)C)cc2)cc1 (centres undefined),Potency,[1],active: 48.6 µM
same,Potency,[2],inconclusive: 68.6 µM [cytotoxic]
same,Potency,[3],active: 61.1 µM
same,Potency,[12],inactive
same,Potency,[4],active: 30.6 µM
same,Potency,[13],active: 43.3 µM
same,Potency,[11]; [15],inactive
same,Potency,[5],"inconclusive: 54.9 µM [cytotoxic, single point]"
same,Potency,[14],inconclusive: 54.9 µM
same,Potency,[7],active: 35.7 µM
CC(S)C(C)S (centres undefined),Potency,[1],inactive
same,Potency,[2],inactive
same,Potency,[10],inactive
same,Potency,[12],inactive
same,Potency,[4],inactive
O=C(CCCN1CCC(O)(c2ccc(Cl)cc2)CC1)c1ccc(F)cc1,Potency,[1],active: 61.1 µM and inactive
same,Potency,[2],"inconclusive: 29.8 µM [cytotoxic, partial curve]"
same,Potency,[3],active: 54.5 µM and inconclusive: 29.8 µM [cytotoxic]
same,Potency,[4],active: 54.5 µM
same,activation,[11]; [15],inconclusive: -15.1%
same,activation,[11]; at 42.5 µM (top of the series),inactive: -1.33%
same,Potency,[5],"inconclusive: 0.275 µM [cytotoxic, full curve, poor fit]"
same,Potency,[7],"inconclusive: 113 µM [cytotoxic, single point]"
same,Potency,[8],active: 49 µM
Fc1ccc(C(c2ccc(F)cc2)N2CCNCC2)cc1,Potency,[1],inactive
same,Potency,[2],"inconclusive: 26.6 µM [cytotoxic, partial curve]"
same,Potency,[5],inactive
same,Potency,[14],"inconclusive: 23.9 µM [falling, partial curve, poor fit]"
same,Potency,[9],"inconclusive: 21.3 µM [cytotoxic, partial curve, poor fit]"
Clc1ccc(C(Cn2ccnc2)OCc2ccc(Sc3ccccc3)cc2)c(Cl)c1 (centres undefined),Potency,[1],inactive
same,Potency,[2],inactive
same,Potency,[6],"inconclusive: 43.8 µM [rising, partial curve]"
same,Potency,[14],"inconclusive: 26.8 µM [falling, partial curve, poor fit]"
O[C@@H](COc1cccc2ncccc12)CN1CCN(C2c3ccccc3[C@@H]3[C@H](c4ccccc42)C3(F)F)CC1 (some centres undefined),Potency,[1],active: 9.44 µM
same,Potency,[2],"inconclusive: 23.7 µM [cytotoxic, partial curve]"
same,Potency,[3],inconclusive: 29.8 µM [cytotoxic]
same,Potency,[4],"inconclusive: 15 µM [cytotoxic, partial curve]"
same,Potency,[11]; [15],active: 11.9 µM
same,Potency,[14],"inconclusive: 30.1 µM [falling, single point]"
same,Potency,[8],"inconclusive: 26.8 µM [falling, single point]"
same,Potency,[9],"inconclusive: 26.8 µM [cytotoxic, partial curve, poor fit]"
CC(C)C(O)C(C)(C)CO (centres undefined),Potency,[1],active: 0.631 µM
same,Potency,[2],"inconclusive: 1 µM [cytotoxic, full curve]"
same,Potency,[3],"inconclusive: 0.708 µM [cytotoxic, full curve]"
same,Potency,[4],"inconclusive: 0.891 µM [cytotoxic, full curve]"
same,Potency,[5],"inconclusive: 3.58 µM [cytotoxic, full curve]"
same,Potency,[6],"inconclusive: 52.1 µM [activator, partial curve, poor fit]"
